# Reference: the supplement of paper PMC7826260
# The other results are listed elsewhere or left out. Each Rep nickase domain was tested in vitro on the same pool of single strands (3 µM enzyme, 1 h, 37 °C); shown is the middle of each 90-letter strand. Values are log2 of uncut reads against the no-enzyme pool; the lower, the more was cut; hits are not called. The scaling is to total reads; where an enzyme cuts many sequences, the uncut ones exceed 0.
# Tests used:
# Assay in all cases: uncleaved DNA left, log2 of reads against the no-enzyme library (log2 ratio); higher = less cleavage (more negative = more Rep cleavage of the k-mer); sequences stand for … in CTCGTCCG…ACCGGAGA
# [1] = system: T1, Rep nickase domain of Muscovy duck circovirus
# T1 sequence (residues 1-111, tag not shown): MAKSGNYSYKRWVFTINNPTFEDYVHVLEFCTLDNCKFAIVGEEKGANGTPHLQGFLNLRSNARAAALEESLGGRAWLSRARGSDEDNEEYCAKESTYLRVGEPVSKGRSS
# Method: (§1)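 A pool of 90-nt single-stranded DNAs with seven random bases just before the constant AC of the nick site (name = the seven bases) was cut by 3 µM recombinant His6-SUMO-tagged Rep nickase domain (300 nM DNA, 50 mM HEPES pH 8.0, 50 mM NaCl, 1 mM MnCl2, 1 h, 37 °C, three replicates). Uncut DNA was amplified and sequenced.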
# [2] = system: T2, Rep nickase domain of banana bunchy top virus
# T2 sequence (residues 1-94, tag not shown): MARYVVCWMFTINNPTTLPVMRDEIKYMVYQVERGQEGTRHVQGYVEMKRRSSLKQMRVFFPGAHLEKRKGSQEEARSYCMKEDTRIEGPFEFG
# Method: as §1
# [3] = system: T3, Rep nickase domain of cabbage leaf curl virus
# T3 sequence (residues 1-116, tag not shown): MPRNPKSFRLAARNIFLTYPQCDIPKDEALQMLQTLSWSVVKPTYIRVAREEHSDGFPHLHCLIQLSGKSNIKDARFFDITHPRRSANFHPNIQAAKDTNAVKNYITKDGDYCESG
# Method: as §1
# [4] = system: T4, Rep nickase domain of chickpea chlorotic dwarf virus
# T4 sequence (residues 1-124, tag not shown): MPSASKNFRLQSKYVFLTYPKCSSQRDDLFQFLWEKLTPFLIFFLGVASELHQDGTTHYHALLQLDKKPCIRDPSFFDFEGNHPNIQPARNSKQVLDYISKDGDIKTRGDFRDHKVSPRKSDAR
# Method: as §1
# [5] = system: T5, Rep nickase domain of faba bean necrotic yellows virus
# T5 sequence (residues 1-98, tag not shown): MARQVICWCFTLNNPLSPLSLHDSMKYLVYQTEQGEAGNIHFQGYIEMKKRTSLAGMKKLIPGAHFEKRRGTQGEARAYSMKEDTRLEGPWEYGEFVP
# Method: as §1
# [6] = system: T6, Rep nickase domain of maize striate mosaic virus
# T6 sequence (residues 1-117, tag not shown): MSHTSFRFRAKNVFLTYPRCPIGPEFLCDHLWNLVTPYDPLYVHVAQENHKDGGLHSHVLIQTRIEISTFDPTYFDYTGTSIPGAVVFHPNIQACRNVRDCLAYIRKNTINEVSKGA
# Method: as §1
# [7] = system: T7, Rep nickase domain of porcine circovirus 2
# T7 sequence (residues 2-116, tag not shown): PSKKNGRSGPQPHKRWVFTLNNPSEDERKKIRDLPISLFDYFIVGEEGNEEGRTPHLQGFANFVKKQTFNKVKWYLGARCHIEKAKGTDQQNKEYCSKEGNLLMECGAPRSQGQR
# Method: as §1
# [8] = system: T8, Rep nickase domain of tomato yellow leaf curl virus
# T8 sequence (residues 1-136, tag not shown): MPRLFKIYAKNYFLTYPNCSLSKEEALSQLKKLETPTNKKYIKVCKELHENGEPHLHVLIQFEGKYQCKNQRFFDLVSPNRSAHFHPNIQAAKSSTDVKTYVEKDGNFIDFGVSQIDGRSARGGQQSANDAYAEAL
# Method: as §1
# [9] = system: T9, Rep nickase domain of wheat dwarf virus
# T9 sequence (residues 1-137, tag not shown): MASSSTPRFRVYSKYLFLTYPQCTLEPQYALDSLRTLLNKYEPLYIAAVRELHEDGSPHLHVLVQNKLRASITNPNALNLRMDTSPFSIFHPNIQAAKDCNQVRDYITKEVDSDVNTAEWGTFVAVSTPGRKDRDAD
# Method: as §1
Sequence,uncleaved DNA left (log2) [1],uncleaved DNA left (log2) [2],uncleaved DNA left (log2) [3],uncleaved DNA left (log2) [4],uncleaved DNA left (log2) [5],uncleaved DNA left (log2) [6],uncleaved DNA left (log2) [7],uncleaved DNA left (log2) [8],uncleaved DNA left (log2) [9]
CGCCTCA,0.0872,0.0175,0.0713,-0.413,0.0485,-0.0706,-0.0506,0.111,0.0881
GTGCACG,0.0087,-0.00926,-0.53,-0.159,0.0231,-0.49,0.102,-0.00675,-0.1
ACGTGCC,0.07,0.012,-0.192,-0.0819,-0.0208,-0.556,0.0842,-0.00844,-0.0759
TACCCTC,-0.0714,-0.0869,0.012,-1.44,-0.0099,-0.25,-0.97,-0.0861,-0.111
TTTAAGA,0.128,0.0249,0.0535,-0.0576,0.00594,-0.868,0.137,0.0589,0.0755
GATTCGC,0.0316,-0.127,-0.346,-0.367,-0.12,-0.982,0.0334,0.0482,0.00563
TGCGACA,0.0916,0.0628,0.0152,0.567,-0.0125,1.18,0.0803,0.131,-0.00762
AACTGTG,0.179,0.186,-0.712,-0.179,0.094,-0.936,0.255,0.323,0.159
ATCGTGC,0.0119,-0.0635,-0.618,-0.541,-0.0554,-1.17,0.0986,0.0244,-0.154
ATCAGCC,-0.0796,-0.0473,-0.282,-0.462,-0.0473,-1.12,0.00898,-0.0813,-0.0671
GCGACCG,0.0124,-0.0207,-0.155,0.049,-0.0368,-0.357,0.0003,-0.0595,-0.0826
CCCCCTA,-0.123,-0.208,-0.0593,-1.28,-0.137,-0.604,-0.44,-0.185,-0.0284
TTTTAGT,-3.19,-0.185,-0.164,-1.05,-0.0432,-0.881,-3.41,0.0163,-0.104
TGACGCA,0.0663,0.0177,0.0505,0.259,0.0769,1.18,-0.103,0.0685,0.0657
AAACTAC,0.0513,0.0188,-0.343,-2.74,0.0903,-0.621,0.0649,-0.00182,0.0535
GTCCAGA,0.0346,0.0182,0.326,0.902,-0.0346,1.59,0.0792,0.0675,-0.0588
